Laboratory results reported in the supplement of paper PMC11417369.
Some of the results follow.

Test system: PfHDP1 homeodomain (GST-tagged)
Experiment: gcPBM binding intensity (ln(normalized median fluorescence intensity)); higher = stronger DNA binding
Method in brief: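 The binding buffer was 1× PBS containing 1% milk, 0.2 mg/ml BSA, 0.5% salmon testes DNA and 0.03% Triton X-100. In it, GST-tagged P. falciparum DNA-binding domains expressed in E. coli were applied for 1 h to an Agilent 4 × 180k array of primer-extended double-stranded 36-bp intergenic genomic probes plus negative controls. Binding intensity, read with Alexa488 anti-GST antibody and a 488 nm scan, is the highest Masliner-normalised natural-log median intensity across replicate spots of either probe orientation.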

Row | Sequence | gcPBM binding intensity (ln)
1 | ATCTTTTATATAAAATGTACAGAGTTTGAAAGAATA [XGTACX_site8826] | 6.64
2 | TGTAAATATATATATACACACACACCGAAGCAATAG [CACACA_site8960] | 7.46
3 | CATACAGACATACATACACACATACATACAGACATA [CACACA_site6996] | 6.87
4 | TAAAAAGGAAGACACACACACACATATATAAATATA [CACACA_site7657] | 6.82
5 | GTATATCACACATTTGCATGTTGTCAATAGTTTATC [TGCATGCA_site134] | 6.93
6 | TTTTTTTTTTTTTAAACATGCATATTAATATTATAT [TGCATGCA_site820] | 6.46
7 | ATACAAATTGTTTAAAGTACAAATTACACCTCTTAA [XGTACX_site6888] | 6.21
8 | TATATACACATATATAAACACACAAAAAAAAAAAAA [CACACA_site8626] | 6.47
9 | ATTATATACATATATGCACACAAAAAAATATATATT [CACACA_site8508] | 9.93
10 | AAAGGCTATCTTATATACTCCTAAAACGCGAACGTA [CACACA_negctrl_site396] | 6.12
11 | ATAAATTCTATGTATACACACATATAAAATATAGAT [CACACA_site7296] | 6.74
12 | AATATATAAATATTGTGTACTTATTTTTTTATATGT [XGTACX_site4377] | 6.54
13 | TATCATTAATTTACATGTACATAAATGAATGTTTAT [XGTACX_site5608] | 6.09
14 | TTCGTAATTTATATCACACACATATATCTATAATAA [CACACA_site7458] | 6.83
15 | TTTTTTGTTATTAAAAGTACATTATATGCTAGTTAA [XGTACX_site8747] | 6.19
16 | TTAAAAATATTATGTACACACATTTGAGATATTTGT [CACACA_site6953] | 6.26
17 | TGAAATAAAATTTATACACACTTGCTAAATGATCAT [CACACA_site4265] | 6.53
18 | CAATGGTCATTTAGTTGTACTTAATTTTAAATCAAA [XGTACX_site4075] | 6.21
19 | AAAAAAAACGAACACACACACATTCAATATAAAACA [CACACA_site6170] | 6.8
20 | AGAATATTTAAAAAAGGTACACAAAAACCAAAATAA [XGTACX_site8569] | 6.81
21 | TTATTGCATATTTACACACGTACTAATTTAAACAAG [CACACA_site971] | 7.58
22 | ATATATGACAAATGTAGTACAAATTATTGTATCATA [XGTACX_site3675] | 6.37
23 | TATTAATACAGACACACACACACACCCAATAAAATA [CACACA_site243] | 6.97

Row | Sequence | gcPBM binding intensity (ln)
24 | ATAAATTCATATATGAGTACTAAAAATATCTTTTTC [XGTACX_site5541] | 6.6
25 | TACAATTTAATATATACACACAAATAAATTATGCTT [CACACA_site856] | 6.4
26 | AACAATTTATATAAAGCACACATGGGAAGGAAATAC [CACACA_site1712] | 7.65
27 | GTAAGCACACATAGTTGTACATTAATAAAAATAAAT [XGTACX_site5876] | 6.53
28 | ATATGTATGAAGTGTACACATATATTGTATTTTCTT [CACACA_site5503] | 6.59
29 | TTCCTATAAAAAAACACACACATATAAATATATATA [CACACA_site2318] | 6.66
30 | TAAACACATTATATATGTACATAATAAAAAAAAAAA [XGTACX_site7907] | 6.49
31 | AAGTTATACACATCAACACACACATACAACGTGGTG [CACACA_site8312] | 6.98
32 | ATATTAACTTTTATTACACACTCTCAACTTTTATTT [CACACA_site6176] | 6.93
33 | TCACAAATGTATTATACACACAAGTTTTCTTTAATA [CACACA_site4107] | 6.65
34 | ATAAAATACAAAGGGACACACATATGAGTCTACAAA [CACACA_site3092] | 6.24
35 | ATTTATTTATTTTCATGTACATATGTAAATCAATAA [XGTACX_site3886] | 6.21
36 | TATATAATATAATGTAGTACATGTTTTATTTTTTAC [XGTACX_site7735] | 6.4
37 | TATATATTATATATATGTACTTATTTATTAATTTAT [XGTACX_site5253] | 6.56
38 | ATATAAAATAAATAAGTGCAGATAAATTTATGTGAC [GTGCAC_site9504] | 8.05
39 | TGTGGTTTTTATAATTGTACATATATATAAATCTAT [XGTACX_site4766] | 6.44
40 | TATAATAAATCAAATGCACACACACTAATAAAAAAA [CACACA_site7937] | 9.89
41 | GGAATATAAATACATACACACATATATATATATATA [CACACA_site4998] | 9.34
42 | ATGAATATTTACAATCTTATTATGTTCAAAATTAAT [CACACA_negctrl_site592] | 6.16
43 | TACATGCTTATTTTAACACACAAATGGTAGTAATAA [CACACA_site766] | 6.25
44 | AATAAAAATAACCTAACATGCAAAAAAAAAAAAAAA [TGCATGCA_site718] | 6.37
45 | TGAATGCTTTTATGCACACGTACAAAAATATTATAT [CACACA_site2668] | 10.4
46 | GTCATTAAAAAAATATGTACTTAAATGTATGCATAT [XGTACX_site5951] | 6.44

Row | Sequence | gcPBM binding intensity (ln)
47 | CAAAATGATATGACAACACACAACCTATAGTAAGAC [CACACA_site1287] | 6.91
48 | TAATATATAATAAAGTGTACATATGCTTTATTATTA [XGTACX_site1920] | 6.81
49 | TGACGACATTTCTTATGTACTAATTTTTCTTCCTTT [XGTACX_site4391] | 6.09
50 | TAAAAAAAGAAAAAAAGTACATGCTACTTTTATGAT [XGTACX_site7818] | 6.34
51 | AGTAAATAACACAAATATGAATGAAAAAAAAAATAT [GTGCAC_negctrl_site235] | 6.82
52 | CGTATGAGTAAATACACACCCACGTATATATATAAA [CACACA_site5728] | 6.53
53 | ATATATATATAGTACGCACACATAGTTGTACATTAA [CACACA_site2787] | 8.91
54 | CAACTTATTAAAAGTCGTACAAATGGGAAGAAGGAA [XGTACX_site6325] | 6.41
55 | TGTGCGGAAATAAGTGCACACATAGATATCTGTATT [CACACA_site5935] | 9.71
56 | ATAATTATTAATATAGTGCATTGGCATAATAATATA [GTGCAC_site9810] | 8.03
57 | TTATACAACAAGAAAATTATAAAATGTAACATATAT [GTGCAC_negctrl_site406] | 6.51
58 | ATATTAATATAATGTGCATGTTCAATGATCTTTTTA [TGCATGCA_site22] | 8.51
59 | TTAGATATAATATATACACACCAACGAACGAAGAAA [CACACA_site4763] | 7.23
60 | TACAAATATATATGCACACACATATATGTATATGTG [CACACA_site3075] | 10.4
61 | TATTTTTTAACACAACGTACATATAAAAAATATTTA [XGTACX_site6025] | 6.42
62 | AAATCCTTATTTTTTTGTACGTAATATTTTATATGG [XGTACX_site1530] | 6.74
63 | ATGAATGTCCCAAGATGTACAATTATATATAACACA [XGTACX_site4702] | 6.55
64 | TTTTAAGATATAAATTAATACTTATATATATAGATA [CACACA_negctrl_site22] | 5.97
65 | TAATAAATAAGACACACACACATATATATATATTAT [CACACA_site1389] | 6.95
66 | GAGTAAAAATTAAAATGTACATATTATATATATTTA [XGTACX_site1319] | 6.22
67 | AAAAATTTTATATTCACACACATATTTATATTTATA [CACACA_site6439] | 6.49
68 | CCTTTCACATATAATACATGCATTATTATATATGAA [TGCATGCA_site287] | 6.91
69 | AGAATAATATAATAAAGTACAAACCTATCTAACTAC [XGTACX_site5477] | 6.69

Row | Sequence | gcPBM binding intensity (ln)
70 | ATTATAAATAAATATTGTACTTATATGATCTATTTG [XGTACX_site3820] | 6.25
71 | GGATATATTATATGTACACACACATATAAGGGATTA [CACACA_site7884] | 6.53
72 | ATTGCATTTGTAGATAATACAATATGGATTGTTATA [CACACA_negctrl_site1749] | 6.02
73 | AAAAAAATTTATTAAAGTACTAGATAATCATATAAA [XGTACX_site1455] | 6.41
74 | TTCTTTTCTCTTTTAATCATATTATATAAATGAATA [CACACA_negctrl_site820] | 6.71
75 | ATATATAAAAAAGCTAGTACACAAAAATATATAATG [XGTACX_site3001] | 6.94
76 | GTAAATATATATATATATATATATATATATATATAT [GTGCAC_negctrl_site239] | 9.41
77 | CATTTTATTTTCTTTGTGCACAAAAATATTTTTTCT | 10.8
78 | TTGTAACAAAAGTACACACACATTTCTATAAATTTT [CACACA_site2772] | 6.45
79 | TTTATATACTATCAACGTACAAAAGTAATAAAAATA [XGTACX_site4343] | 6.59
80 | GGATTTTACCATAGCACACATATATGAATATTTTTC [CACACA_site1814] | 6.65
81 | TGTTCTAATTTTAATTGTACATATATACATATATAT [XGTACX_site7290] | 6.37
82 | AAAGTTATGATATATACACACATATAAATATTAAAT [CACACA_site6361] | 6.57
83 | GAAATAATAAAATCGACACACAAAAAAAAAAAAAAA [CACACA_site3476] | 6.39
84 | CTATTTAAAATTTGAACACACATTATTTATTTTAAA [CACACA_site3114] | 6.41
85 | CTTTATATATATTGCGTGCACATTTTTTTTTTTTTT | 9.4
86 | TCAATATATATAAGAAGTACATGTGAATGAAAAAAA [XGTACX_site1674] | 7.29
87 | AATAAATACAAAAATGTACACACATATATATATTTT [CACACA_site9167] | 6.71
88 | AACATATAAAAATATGCACACACAGGAATACAAACA [CACACA_site8127] | 9.18
89 | TTCTGTATACGGTGTGCACACAATTAAAAAAAAAAA [CACACA_site1416] | 10.8
